Measured values taken from PubChem BioAssay AID1458 (National Center for Advancing Translational Sciences (NCATS), 2008).
Screen size: about 210,000 compounds; about 5,900 (2.8%) were called active. The shares of active, inactive and inconclusive entries below differ from those in the screen. Calls come from the whole dose curve; as a rule, active = well fitted activation curve with a large enough effect; inconclusive = small, poorly fitted or top-dose-only effect; inactive = no such curve, though single readings can be large or run the other way. Potencies beside an inconclusive call are fits to weak or partial responses and may not hold up.

Assay: qHTS Assay for Enhancers of SMN2 Splice Variant Expression; note: nearly all actives have a fitted effect of over 55% in size; for activity change, positive = activation: % of control where 0% means no effect
Conditions: HEK293 SMN2-luciferase splicing reporter, luminescence, 30-36 h; activity change, positive = activation: at 46.1 µM (top of the series)
In short: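 qHTS luciferase splicing reporter: luminescence rises when SMN2 exon 7 is included in transfected HEK293 cells. Compound exposure lasted 30-36 h at 37C, with 4.5 mM final sodium butyrate as control, followed by a ONE-Glo read.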
Potency is the fitted concentration of half-maximal effect; tags give direction and shape of the fitted curve.

| Structure (SMILES) | Potency | activity change, positive = activation |
| --- | --- | --- |
| COc1ccccc1N(CC(=O)N/N=C/c1ccc(OCC(=O)NCc2ccco2)cc1)S(=O)(=O)c1ccc(C)cc1 | inconclusive: 14.1 µM [activator, single point] | – |
| O=C(N/N=C/c1ccc(OCc2ccccc2)cc1)c1ccncc1 | active: 15.8 µM | – |
| CC(=C1C(=O)c2ccccc2C1=O)N1CCN(Cc2ccccc2)CC1 | inconclusive: 1.12 µM [activator, full curve, poor fit] | – |
| CCCS(=O)(=O)NCc1cn2cccc(C)c2n1 | inactive | – |
| COc1ccc(C(=O)NCC2CCCO2)cc1 (stereo not drawn) | inconclusive: 35.5 µM [activator, single point] | – |
| O=C(Cc1ccccc1)c1nc2ccccc2s1 | active: 3.98 µM | – |
| Cc1ccc(S(=O)(=O)N2CCCC(C(=O)Nc3ccc(NC(=O)c4ccccn4)cc3)C2)cc1 (stereo not drawn) | inconclusive: 12.6 µM [activator, single point] | – |
| O=C(Nc1cccnc1)c1coc(=O)c2ccccc12 | inactive | – |
| COc1cc(C(c2c(C)[nH][nH]c2=O)c2c(C)[nH][nH]c2=O)ccc1OC(C)C | inconclusive: 0.282 µM [activator, full curve, poor fit] | – |
| Cc1cccc(-c2noc(Cc3ccc(Cl)cc3)n2)c1 | inconclusive: 20 µM [activator, partial curve, poor fit] | – |
| COc1ccc(C2CC(c3c(-c4ccccc4)c4cc(Cl)ccc4[nH]c3=O)=NN2S(C)(=O)=O)cc1 (stereo not drawn) | inconclusive: 6.31 µM [activator, partial curve] | – |
| O=C(COC(=O)CCC1CCCC1)Nc1ccc(Cl)cn1 | inconclusive: 10 µM [activator, partial curve, poor fit] | – |
| CC(C)c1cc(C(=O)N2CCCC(CCC(=O)NCc3ccccc3F)C2)n(C)n1 (stereo not drawn) | inactive | – |
| O=[N+]([O-])c1cccc2ccc(/C=C/c3cccc(Br)c3)nc12 | inconclusive: 2.51 µM [activator, full curve, poor fit] | – |
| COc1ccc(OC)c(S(=O)(=O)Nc2c(F)cccc2F)c1 | inconclusive: 6.31 µM [activator, full curve, poor fit] | – |
| C#CCOCCOCCOCCNc1nc(N2CCN(C(=O)[C@H]([C@@H](C)CC)n3cc(CCCCN)nn3)CC2)nc(N2CCN(C(=O)[C@H](C)n3cc(CCC(=O)O)nn3)CC2)n1 | inconclusive: 2.24 µM [activator, full curve, poor fit] | – |
| CNC(=S)N/N=C/c1c(C)nn(-c2ccccc2)c1Cl | inconclusive: 10 µM [activator, partial curve] | – |
| O=C(Oc1cccc(Nc2ncnc3ccccc23)c1)c1ccccc1Cl | inactive | – |
| CC(C)CNC(=S)NNC(=O)c1ccc2c(c1)OCO2 | inconclusive: 3.55 µM [activator, single point] | – |
| Cc1sc2nc(C3CC3)nc(SCC(=O)N3c4ccccc4CC3C)c2c1C (stereo not drawn) | inconclusive: 25.1 µM [activator, single point] | – |
| CCOC(=O)C1C(c2cc(OC)c(OC)c(OC)c2)NC(=S)NC1(O)C(F)(F)F (stereo not drawn) | inconclusive: 0.0045 µM [activator, full curve, poor fit] | – |
| Cc1ccc(CN2CCSc3ccc(C(=O)Nc4ccc(C)cc4)cc32)cc1 | inconclusive: 4.47 µM [activator, partial curve] | – |
| O=C(Nc1ccccc1)c1ccc2c(c1)OCO2 | inconclusive: 20 µM [activator, single point] | – |

| Structure (SMILES) | Potency | activity change, positive = activation |
| --- | --- | --- |
| CCOC(=O)N1CCC(NC(=O)C(CC(C)C)NC(=O)C2CCCCC2)CC1 (stereo not drawn) | inconclusive: 0.0112 µM [activator, full curve, poor fit] | – |
| COc1ccc(-c2cc(C(=O)OCC(=O)N(C)C)c3ccccc3n2)cc1 | inconclusive: 35.5 µM [activator, single point] | – |
| COc1ccc(-n2c(SCC(=O)NCc3ccco3)nnc2-c2c[nH]c3ccccc23)cc1 | inconclusive: 31.6 µM [activator, single point] | – |
| C=CCNC(=O)c1ccc(N(CC=C)S(C)(=O)=O)cc1 | inconclusive: 4.47 µM [activator, single point] | – |
| Cc1ccc(-c2nnc3ccc(SCC(=O)N4CCCc5ccccc54)nn23)cc1 | inactive | – |
| CC1CC(C)CN(C(=O)COC(=O)c2cccc([N+](=O)[O-])c2)C1 (stereo not drawn) | – | inconclusive: 30.7% [activator] |
| O=C(Cn1nc(-c2ccc(Cl)cc2)c2ccccc2c1=O)Nc1cccc(C(F)(F)F)c1 | inactive | – |
| O=c1c2ccccc2ncn1CCOc1ccccc1[N+](=O)[O-] | inconclusive: 11.2 µM [activator, partial curve] | – |
| COC(=O)c1cccc(NC(=O)c2cccc(OC)c2)c1 | inconclusive: 17.8 µM [activator, partial curve, poor fit] | – |
| CCOC(=O)c1cc2sccc2n1CC(=O)Nc1ccc(OC)c(OC)c1 | inconclusive: 0.0251 µM [activator, full curve, poor fit] | – |
| COCCn1c(C)cc(C(=O)CN2C(=O)NC3(CCCCCCC3)C2=O)c1C | inconclusive: 11.2 µM [activator, partial curve] | – |
| O=C(/C=C/c1ccco1)Nc1nc(-c2ccccn2)cs1 | inconclusive: 5.62 µM [activator, single point] | – |
| c1ccc(CSc2ncnc3sccc23)cc1 | inactive | – |
| O=C(NC(c1ccccc1)c1ccccc1)c1cccc(S(=O)(=O)NCc2ccccc2)c1 | inconclusive: 35.5 µM [activator, single point] | – |
| Cn1c(N)c(C(=O)COC(=O)COc2ccccc2C#N)c(=O)n(C)c1=O | inconclusive: 1.78 µM [activator, partial curve] | – |
| CCSc1nnc(NC(=O)COc2ccccc2[N+](=O)[O-])s1 | inconclusive: 22.4 µM [activator, single point] | – |
| Cc1cc(C(=O)NCc2ccco2)cs1 | inconclusive: 7.94 µM [activator, full curve, poor fit] | – |
| CCCn1c(=O)c(C(=O)NCc2ccncc2)c(O)c2ccccc21 | inconclusive: 15.8 µM [activator, single point] | – |
| c1ccc2c(c1)oc1c(Nc3ccc4c(c3)OCCO4)ncnc12 | active: 2.82 µM | – |
| C/C(=N/NC(=O)C1CCN(S(=O)(=O)c2ccc(C)cc2)CC1)c1cccc([N+](=O)[O-])c1 | inconclusive: 3.98 µM [activator, single point] | – |
| CCN(CC)S(=O)(=O)c1ccc2oc(C(=O)N3CCCCCC3)c(C)c2c1 | inactive | – |
| COC(=O)C(C(=O)OC)C1c2ccccc2C=C(C)N1C(=O)OC (stereo not drawn) | – | inactive: 4.16% [at 9.22 µM] |
| O=C(CCSCc1ccccc1F)NCCc1ccccc1 | inconclusive: 31.6 µM [activator, single point] | – |

| Structure (SMILES) | Potency | activity change, positive = activation |
| --- | --- | --- |
| CCCCC(=O)Nc1ccc(OCc2cc(=O)n3c(C)csc3n2)cc1 | inactive | – |
| COc1ccc(/C=C/C(=O)Oc2ccc(/C=N/NC(=O)COc3c(C)cccc3C)cc2)cc1 | inconclusive: 28.2 µM [activator, single point] | – |
| O=C(NCc1nc2ccccc2[nH]1)c1cccc(S(=O)(=O)N2CCCC2)c1 | inconclusive: 11.2 µM [activator, single point] | – |
| CCOc1ccc(-c2ccc(SC)nn2)cc1 | active: 0.794 µM | – |
| Cn1c(=O)cc(SCC(=O)N2CCCC2)c2cc(Cl)ccc21 | inconclusive: 22.4 µM [activator, single point] | – |
| O=C(Nc1cccc(Cl)c1)c1cc(-c2ccc3c(c2)OCO3)on1 | inconclusive: 20 µM [activator, single point] | – |
| COc1cc(OC)cc(C(=O)Nc2ccc3nc4n(c(=O)c3c2)CCCCC4)c1 | active: 17.8 µM | – |
| Fc1cccc(/C=N/Nc2nc3ccccc3[nH]2)c1 | inconclusive: 15.8 µM [activator, single point] | – |
| COc1cccc(-c2nnn(CCC(=O)O)n2)c1 | inactive | – |
| Cc1cc(NC(=O)c2cc(Cl)ccc2Cl)ccc1-c1cc2ccccc2oc1=O | inactive | – |
| Cc1ccc(NC(=O)CSc2nc3ccccc3c(=O)n2Cc2cccs2)cc1 | inconclusive: 35.5 µM [activator, partial curve] | – |
| O=C(COC(=O)c1cnccn1)c1ccc2c(c1)CCCC2 | inactive | – |
| COC(=O)CC1C(C)(C)C(=O)C2CC3C4=CC(=O)OC(c5ccoc5)[C@]4(C)CCC3[C@@]1(C)C2=O (stereo partly drawn) | inactive | – |
| CCCNC(=O)CN(Cc1ccccc1F)S(=O)(=O)c1ccc(C)cc1 | inconclusive: 0.178 µM [activator, full curve, poor fit] | – |
| CCOc1ccc(NC(=O)Nc2cnccn2)cc1 | inconclusive: 35.5 µM [activator, single point] | – |
| O=C(Nc1nccs1)c1sc2cc(Cl)ccc2c1Cl | inconclusive: 3.55 µM [activator, partial curve] | – |
| CCOC(=O)C1CCN(C(=O)/C=C/c2ccccc2OC)CC1 | inactive | – |
| CC(C)[C@H](NC(=O)NC1CCCC1)C(=O)O | inconclusive: 0.0071 µM [activator, full curve, poor fit] | – |
| N#C/C(=N\Nc1ccc(Cl)cc1)C(=N)N1CCCCCC1 | active: 3.55 µM | – |
| Cc1ccc(OC2=NS(=O)(=O)c3ccccc32)cc1 | inactive | – |
| COc1cc(C(=O)NCCN2C(=O)S/C(=C\c3cccs3)C2=O)cc(OC)c1OC | inconclusive: 15.8 µM [activator, single point] | – |
| Cc1ccc2nc(NC(=O)C3CCCN(S(=O)(=O)c4cnc[nH]4)C3)sc2c1 (stereo not drawn) | inconclusive: 15.8 µM [activator, single point] | – |
